Measurements from the supplement of paper PMC8728848.
This is one part of the list.

Legend:
Test in all cases: glycan array binding signal (z-score within array); higher = stronger binding
Conditions in all cases: glycan notation: IUPAC condensed, linker removed
Fuc(a1-2)Gal(b1-4)Glc6S = biological target: Fuc(a1-2)Gal(b1-4)Glc6S
Procedure, shortened: (§1)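 Arrays were curated from the Consortium for Functional Glycomics database, 3228 in total, and kept only where the protein sequence was available. Binding is expressed as a within-array Z-score. This score was averaged across arrays of the same protein sequence at different concentrations or buffers and across linkers, and negative values can be read as non-binding.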

Fuc(a1-2)Gal(b1-4)GlcNAc = biological target: Fuc(a1-2)Gal(b1-4)GlcNAc
Procedure, shortened: as §1

[1] = biological target: Fuc(a1-2)Gal(b1-4)GlcNAc(b1-2)Man
Procedure, shortened: as §1

[2] = biological target: Fuc(a1-2)Gal(b1-4)GlcNAc(b1-2)Man(a1-3)[Fuc(a1-2)Gal(b1-4)GlcNAc(b1-2)Man(a1-6)]Man(b1-4)GlcNAc(b1-4)GlcNAc
Procedure, shortened: as §1

[3] = biological target: Fuc(a1-2)Gal(b1-4)GlcNAc(b1-2)Man(a1-3)[Fuc(a1-2)Gal(b1-4)GlcNAc(b1-2)Man(a1-6)]Man(b1-4)GlcNAc(b1-4)[Fuc(a1-6)]GlcNAc
Procedure, shortened: as §1

[4] = biological target: Fuc(a1-2)Gal(b1-4)GlcNAc(b1-2)[Fuc(a1-2)Gal(b1-4)GlcNAc(b1-4)]Man(a1-3)[Fuc(a1-2)Gal(b1-4)GlcNAc(b1-2)Man(a1-6)]Man(b1-4)GlcNAc(b1-4)GlcNAc
Procedure, shortened: as §1

[5] = biological target: Fuc(a1-2)Gal(b1-4)GlcNAc(b1-3)Gal(b1-4)GlcNAc
Procedure, shortened: as §1

[6] = biological target: Fuc(a1-2)Gal(b1-4)GlcNAc(b1-3)Gal(b1-4)GlcNAc(b1-2)Man(a1-3)[Fuc(a1-2)Gal(b1-4)GlcNAc(b1-3)Gal(b1-4)GlcNAc(b1-2)Man(a1-6)]Man(b1-4)GlcNAc(b1-4)GlcNAc
Procedure, shortened: as §1

[7] = biological target: Fuc(a1-2)Gal(b1-4)GlcNAc(b1-3)Gal(b1-4)GlcNAc(b1-3)Gal(b1-4)GlcNAc
Procedure, shortened: as §1

[8] = biological target: Fuc(a1-2)Gal(b1-4)GlcNAc(b1-3)GalNAc
Procedure, shortened: as §1

[9] = biological target: Fuc(a1-2)Gal(b1-4)GlcNAc(b1-3)[Fuc(a1-2)Gal(b1-4)GlcNAc(b1-6)]GalNAc
Procedure, shortened: as §1

[10] = biological target: Fuc(a1-2)Gal(b1-4)GlcNAc(b1-3)[Fuc(a1-3)[Gal(b1-4)]GlcNAc(b1-6)]Gal(b1-4)Glc
Procedure, shortened: as §1

[11] = biological target: Fuc(a1-2)Gal(b1-4)GlcNAc(b1-6)GalNAc
Procedure, shortened: as §1

[12] = biological target: Fuc(a1-2)Gal(b1-4)GlcNAc6S
Procedure, shortened: as §1

[13] = biological target: Fuc(a1-2)Gal(b1-4)[Fuc(a1-3)]GlcNAc
Procedure, shortened: as §1

[14] = biological target: Fuc(a1-2)Gal(b1-4)[Fuc(a1-3)]GlcNAc(b1-2)Man(a1-3)[Fuc(a1-2)Gal(b1-4)[Fuc(a1-3)]GlcNAc(b1-2)Man(a1-6)]Man(b1-4)GlcNAc(b1-4)[Fuc(a1-6)]GlcNAc
Procedure, shortened: as §1

[15] = biological target: Fuc(a1-2)Gal(b1-4)[Fuc(a1-3)]GlcNAc(b1-2)[Fuc(a1-2)Gal(b1-4)[Fuc(a1-3)]GlcNAc(b1-4)]Man(a1-3)[Fuc(a1-2)Gal(b1-4)[Fuc(a1-3)]GlcNAc(b1-2)Man(a1-6)]Man(b1-4)GlcNAc(b1-4)GlcNAc
Procedure, shortened: as §1

[16] = biological target: Fuc(a1-2)Gal(b1-4)[Fuc(a1-3)]GlcNAc(b1-3)Gal(b1-4)[Fuc(a1-3)]GlcNAc
Procedure, shortened: as §1

[17] = biological target: Fuc(a1-2)Gal(b1-4)[Fuc(a1-3)]GlcNAc(b1-3)Gal(b1-4)[Fuc(a1-3)]GlcNAc(b1-3)Gal(b1-4)[Fuc(a1-3)]GlcNAc
Procedure, shortened: as §1

[18] = biological target: Fuc(a1-2)Gal(b1-4)[Fuc(a1-3)]GlcNAc(b1-3)GalNAc
Procedure, shortened: as §1

[19] = biological target: Fuc(a1-2)Gal(b1-4)[Fuc(a1-3)]GlcNAc(b1-3)[Neu5Ac(a2-6)Gal(b1-4)GlcNAc(b1-6)]Gal(b1-4)Glc
Procedure, shortened: as §1

[20] = biological target: Fuc(a1-2)Gal3S(b1-4)GlcNAc
Procedure, shortened: as §1

[21] = biological target: Fuc(a1-2)Gal6S(b1-3)GlcNAc
Procedure, shortened: as §1

B1: EULS2 M4 (Oryza sativa) (protein)
chain: MVYCRANPNYAMTARNGAVVLAPANPKDEYQHWIKDMRWSTSIKDEEGYPAFALVNKATGQAIKHSLGQSHPVRLVPYNPEVMDESVLWTESRDVGNGFRCIRMVNNIYLNFDAFHGDKYHGGVRDGTDIVLWKWCEGDSLRWKIQPYYILEQKLISEEDLNSAVDHHHHHH
- glycan array binding signal (z-score) (Fuc(a1-2)Gal(b1-4)Glc6S): -0.377
- glycan array binding signal (z-score) (Fuc(a1-2)Gal(b1-4)GlcNAc): -0.089
- glycan array binding signal (z-score) [1]: 0.636
- glycan array binding signal (z-score) [2]: -0.027
- glycan array binding signal (z-score) [3]: -0.19
- glycan array binding signal (z-score) [4]: 0.045
- glycan array binding signal (z-score) [5]: -0.01
- glycan array binding signal (z-score) [6]: -0.437
- glycan array binding signal (z-score) [7]: -0.532
- glycan array binding signal (z-score) [8]: -0.362
- glycan array binding signal (z-score) [9]: -0.253
- glycan array binding signal (z-score) [10]: -0.777
- glycan array binding signal (z-score) [11]: -0.469
- glycan array binding signal (z-score) [12]: -0.42
- glycan array binding signal (z-score) [13]: 0.022
- glycan array binding signal (z-score) [14]: 0.413
- glycan array binding signal (z-score) [15]: -0.19
- glycan array binding signal (z-score) [16]: -0.523
- glycan array binding signal (z-score) [17]: -0.454
- glycan array binding signal (z-score) [18]: -0.416
- glycan array binding signal (z-score) [19]: -0.466
- glycan array binding signal (z-score) [20]: 0.052
- glycan array binding signal (z-score) [21]: 1.41
